Experimental data from the supplement of paper PMC8728848.
The list shows a part of the results.

How the values were obtained:
Assay in all cases: glycan array binding signal (z-score within array); higher = stronger binding
Settings in all cases: glycan notation: IUPAC condensed, linker removed
[1] = biological target: Man(a1-2)Man(a1-3)[Man(a1-2)Man(a1-6)]Man(a1-6)[Man(a1-2)Man(a1-2)Man(a1-3)]Man(b1-4)GlcNAc(b1-4)GlcNAc
Outline: (§1)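 Glycan array binding is given as a within-array Z-score, which can be read as non-binding when negative. The arrays, 3228 of them, came from the Consortium for Functional Glycomics database and were retained only where the protein sequence was available. Z-scores were averaged across arrays of the same protein sequence at different concentrations or buffers and across linkers.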

[2] = biological target: Man(a1-2)Man(a1-3)[Man(a1-3)[Man(a1-6)]Man(a1-6)]Man(b1-4)GlcNAc(b1-4)GlcNAc
Outline: as §1

[3] = biological target: Man(a1-2)Man(a1-3)[Man(a1-6)]Man(a1-6)[Man(a1-2)Man(a1-3)]Man(b1-4)GlcNAc(b1-4)GlcNAc
Outline: as §1

[4] = biological target: Man(a1-2)Man(a1-6)[Man(a1-3)]Man(a1-6)[Man(a1-2)Man(a1-2)Man(a1-3)]Man
Outline: as §1

[5] = biological target: Man(a1-2)Man(a1-6)[Man(a1-3)]Man(a1-6)[Man(a1-2)Man(a1-2)Man(a1-3)]Man(b1-4)GlcNAc(b1-4)GlcNAc
Outline: as §1

[6] = biological target: Man(a1-3)[Man(a1-6)]Man
Outline: as §1

[7] = biological target: Man(a1-3)[Man(a1-6)]Man(a1-6)[Man(a1-2)Man(a1-3)]Man(b1-4)GlcNAc(b1-4)GlcNAc
Outline: as §1

[8] = biological target: Man(a1-3)[Man(a1-6)]Man(a1-6)[Man(a1-3)]Man
Outline: as §1

[9] = biological target: Man(a1-3)[Man(a1-6)]Man(a1-6)[Man(a1-3)]Man(b1-4)GlcNAc(b1-4)GlcNAc
Outline: as §1

[10] = biological target: Man(a1-3)[Man(a1-6)]Man(b1-4)GlcNAc(b1-4)GlcNAc
Outline: as §1

[11] = biological target: Man(a1-3)[Man(a1-6)]Man(b1-4)GlcNAc(b1-4)[Fuc(a1-6)]GlcNAc
Outline: as §1

[12] = biological target: Man(a1-6)Man
Outline: as §1

[13] = biological target: Man(b1-4)GlcNAc
Outline: as §1

[14] = biological target: MurNAc(b1-4)GlcNAc
Outline: as §1

[15] = biological target: Neu5Ac(a2-3)Gal
Outline: as §1

[16] = biological target: Neu5Ac(a2-3)Gal(b1-3)GalNAc
Outline: as §1

[17] = biological target: Neu5Ac(a2-3)Gal(b1-3)GalNAc(b1-3)Gal(a1-4)Gal(b1-4)Glc
Outline: as §1

[18] = biological target: Neu5Ac(a2-3)Gal(b1-3)GalNAc(b1-4)[Neu5Ac(a2-3)]Gal(b1-4)Glc
Outline: as §1

[19] = biological target: Neu5Ac(a2-3)Gal(b1-3)GalNAc(b1-4)[Neu5Ac(a2-8)Neu5Ac(a2-3)]Gal(b1-4)Glc
Outline: as §1

[20] = biological target: Neu5Ac(a2-3)Gal(b1-3)GalNAc6S
Outline: as §1

[21] = biological target: Neu5Ac(a2-3)Gal(b1-3)GlcNAc
Outline: as §1

[22] = biological target: Neu5Ac(a2-3)Gal(b1-3)GlcNAc(b1-2)Man
Outline: as §1

[23] = biological target: Neu5Ac(a2-3)Gal(b1-3)GlcNAc(b1-2)Man(a1-3)[GlcNAc(b1-4)][Neu5Ac(a2-3)Gal(b1-3)GlcNAc(b1-2)Man(a1-6)]Man(b1-4)GlcNAc(b1-4)GlcNAc
Outline: as §1

[24] = biological target: Neu5Ac(a2-3)Gal(b1-3)GlcNAc(b1-2)Man(a1-3)[Neu5Ac(a2-3)Gal(b1-3)GlcNAc(b1-2)Man(a1-6)]Man(b1-4)GlcNAc(b1-4)GlcNAc
Outline: as §1

[25] = biological target: Neu5Ac(a2-3)Gal(b1-3)GlcNAc(b1-3)Gal(b1-3)GlcNAc
Outline: as §1

[26] = biological target: Neu5Ac(a2-3)Gal(b1-3)GlcNAc(b1-3)Gal(b1-4)GlcNAc
Outline: as §1

[27] = biological target: Neu5Ac(a2-3)Gal(b1-3)GlcNAc(b1-3)GalNAc
Outline: as §1

[28] = biological target: Neu5Ac(a2-3)Gal(b1-3)GlcNAc(b1-4)Gal(b1-4)Glc
Outline: as §1

[29] = biological target: Neu5Ac(a2-3)Gal(b1-3)GlcNAc(b1-6)GalNAc
Outline: as §1

[30] = biological target: Neu5Ac(a2-3)Gal(b1-3)GlcNAc6S
Outline: as §1

[31] = biological target: Neu5Ac(a2-3)Gal(b1-3)[Fuc(a1-4)]GlcNAc
Outline: as §1

[32] = biological target: Neu5Ac(a2-3)Gal(b1-3)[Fuc(a1-4)]GlcNAc(b1-3)Gal(b1-3)[Fuc(a1-4)]GlcNAc
Outline: as §1

[33] = biological target: Neu5Ac(a2-3)Gal(b1-3)[Fuc(a1-4)]GlcNAc(b1-3)Gal(b1-4)[Fuc(a1-3)]GlcNAc
Outline: as §1

[34] = biological target: Neu5Ac(a2-3)Gal(b1-3)[GlcNAc(b1-6)]GalNAc
Outline: as §1

[35] = biological target: Neu5Ac(a2-3)Gal(b1-3)[Neu5Ac(a2-3)Gal(b1-4)]GlcNAc
Outline: as §1

[36] = biological target: Neu5Ac(a2-3)Gal(b1-3)[Neu5Ac(a2-6)]GalNAc
Outline: as §1

[37] = biological target: Neu5Ac(a2-3)Gal(b1-3)[Neu5Ac(a2-6)]GlcNAc(b1-3)[Fuc(a1-3)[Gal(b1-4)]GlcNAc(b1-6)]Gal(b1-4)Glc
Outline: as §1

[38] = biological target: Neu5Ac(a2-3)Gal(b1-3)]Neu5Ac(a2-3)Gal(b1-4)]GlcNAc
Outline: as §1

B1: AAA (Anguilla anguilla), Q7SIC1 (protein)
chain: VIPEGYTQENVAVRGKATQSAQLRGEHAANSEASNAIDGNRDSNFYHGSCTHSSGQANPWWRVDLLQVYTITSVTITNRGDCCGERISGAEINIGQHLASNGVNNPECSVIGSMATGETKTFHCPAPMIGRYVVTYLPTSESLHLCEVEVNVDKPAAA
glycan array binding signal (z-score) [1]: 0.151
glycan array binding signal (z-score) [2]: -0.106
glycan array binding signal (z-score) [3]: -0.183
glycan array binding signal (z-score) [4]: -0.079
glycan array binding signal (z-score) [5]: -0.323
glycan array binding signal (z-score) [6]: -0.178
glycan array binding signal (z-score) [7]: 1.55
glycan array binding signal (z-score) [8]: -0.09
glycan array binding signal (z-score) [9]: -0.599
glycan array binding signal (z-score) [10]: -0.092
glycan array binding signal (z-score) [11]: -0.163
glycan array binding signal (z-score) [12]: -0.104
glycan array binding signal (z-score) [13]: -0.232
glycan array binding signal (z-score) [14]: 0.57
glycan array binding signal (z-score) [15]: -0.03
glycan array binding signal (z-score) [16]: -0.18
glycan array binding signal (z-score) [17]: -0.094
glycan array binding signal (z-score) [18]: -0.161
glycan array binding signal (z-score) [19]: -0.178
glycan array binding signal (z-score) [20]: 0.003
glycan array binding signal (z-score) [21]: -0.191
glycan array binding signal (z-score) [22]: -0.023
glycan array binding signal (z-score) [23]: -0.242
glycan array binding signal (z-score) [24]: -0.356
glycan array binding signal (z-score) [25]: -0.182
glycan array binding signal (z-score) [26]: -0.234
glycan array binding signal (z-score) [27]: -0.087
glycan array binding signal (z-score) [28]: -0.14
glycan array binding signal (z-score) [29]: -0.242
glycan array binding signal (z-score) [30]: 0.003
glycan array binding signal (z-score) [31]: -0.285
glycan array binding signal (z-score) [32]: -0.04
glycan array binding signal (z-score) [33]: 0.053
glycan array binding signal (z-score) [34]: -0.205
glycan array binding signal (z-score) [35]: -0.77
glycan array binding signal (z-score) [36]: -0.191
glycan array binding signal (z-score) [37]: -0.221
glycan array binding signal (z-score) [38]: -0.205
